Among all 270,000 compounds or so, about 5,800 (2.1%) were called active. This list was built around the results that the source calls inconclusive (neither active nor inactive); the mix of calls is not that of the screen. The call rests on the fitted dose curve; in most records, active means well fitted inhibition curve with a large enough effect; inconclusive means small, poorly fitted or top-dose-only effect; inactive means flat fitted curve, though single readings scatter. Potencies of inconclusive entries are doubtful fits and often do not repeat.
Each compound was assayed against Microtubule-associated protein tau (Homo sapiens) (UniProt P10636) (assay: qHTS for Inhibitors of Tau Fibril Formation, Thioflavin T Binding). Conditions: recombinant tau K18 P301L (four-repeat tau fragment), heparin-induced fibrillization, ThT fluorescence; series mostly up to 57.4 µM.
Sequence of UniProt P10636 (P10636 whole entry, looked up, the tested form may be a part): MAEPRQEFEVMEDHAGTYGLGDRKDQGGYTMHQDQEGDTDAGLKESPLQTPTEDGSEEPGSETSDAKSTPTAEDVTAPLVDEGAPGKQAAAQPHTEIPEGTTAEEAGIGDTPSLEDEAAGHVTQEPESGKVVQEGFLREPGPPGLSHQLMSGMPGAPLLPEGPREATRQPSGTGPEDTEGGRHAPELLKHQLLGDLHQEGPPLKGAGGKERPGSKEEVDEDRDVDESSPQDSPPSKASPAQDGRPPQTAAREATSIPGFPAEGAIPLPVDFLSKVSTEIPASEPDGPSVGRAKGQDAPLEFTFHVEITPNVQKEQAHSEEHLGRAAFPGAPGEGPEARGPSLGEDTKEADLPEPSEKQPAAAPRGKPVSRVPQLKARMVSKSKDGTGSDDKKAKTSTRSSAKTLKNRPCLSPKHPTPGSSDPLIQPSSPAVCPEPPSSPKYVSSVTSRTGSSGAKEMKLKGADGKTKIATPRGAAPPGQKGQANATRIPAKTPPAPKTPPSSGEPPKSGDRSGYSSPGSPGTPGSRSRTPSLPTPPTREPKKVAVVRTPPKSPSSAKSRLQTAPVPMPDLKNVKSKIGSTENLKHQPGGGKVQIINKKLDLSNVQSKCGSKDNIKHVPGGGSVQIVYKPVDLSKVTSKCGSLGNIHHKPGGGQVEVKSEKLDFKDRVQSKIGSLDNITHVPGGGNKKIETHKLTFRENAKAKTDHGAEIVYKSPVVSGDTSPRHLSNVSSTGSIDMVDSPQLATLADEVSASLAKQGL
Summary of the method: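 Aggregation was driven by heparin (20 uM final) acting on recombinant tau […] bearing P301L in 100 mM sodium acetate pH 7; fibrils were detected with Thioflavin T.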
In the case of `O=C(COc1ccccc1[N+](=O)[O-])N/N=C/C=C/c1ccco1`, the Potency is reported as inconclusive: 17.8 µM [inhibitor, partial curve]. `Cc1ccccc1CSc1ccc(-c2ccc3c(c2)OCO3)nn1` was tested, and the Potency was inconclusive: 7.94 µM [inhibitor, partial curve]. For `Cc1ccc(/C(=N/Nc2nc3ccccc3s2)C2=C(O)c3ccccc3C2=O)cc1`, the Potency was inconclusive: 25.1 µM [inhibitor, partial curve]. `CC(C)OC(=O)c1c(-c2ccccc2)c(-c2ccccc2)nn(C)c1=O` was tested, and the Potency was “inactive”. In the case of `COc1ccccc1C1C([N+](=O)[O-])=CC([N+](=O)[O-])=CN1C` (centres undefined), the Potency is reported as inconclusive: 25.1 µM [inhibitor, partial curve]. In the case of `O=C(N/N=C/c1ccc2cccnc2c1)c1nc2ccccc2c(=O)[nH]1`, the Potency is reported as inconclusive: 1.58 µM [inhibitor, full curve]. `CCOC(=O)c1ccc2c(c1)C1C=CCC1C(C(=O)O)N2` (centres undefined) was tested, and the Potency was inconclusive: 12.6 µM [inhibitor, partial curve]. `Cc1cccc(Cc2cnc(N3C(=N)SC(C)C3=O)s2)c1` (centres undefined) was tested, and the Potency was inconclusive: 28.2 µM [inhibitor, partial curve, poor fit]. `COc1cc(/C=N/Nc2ccc(C(=O)O)cc2)cc(OC)c1OC` was tested, and the Potency was inconclusive: 1 µM [inhibitor, partial curve, poor fit]. In the case of `COC(=O)CCCC1=CC2=CC(=O)C(C)(OC(=O)c3cccs3)C(=O)C2=CN1C1CCCCC1` (centres undefined), the Potency is reported as “inactive”. For `Cc1cccc(N=Nc2c(C)[nH]n(C(N)=S)c2=O)c1C`, the Potency was active: 7.94 µM. In the case of `N#Cc1ccsc1NC(=O)CSc1ncnc2ccccc12`, the Potency is reported as inconclusive: 28.2 µM [inhibitor, partial curve]. For `CCn1ccnc1CN(C)Cc1cn(-c2ccc(C)cc2)nc1-c1cccc(C)c1`, the Potency was inconclusive: 39.8 µM [inhibitor, single point]. `CCC1CN(S(=O)(=O)c2cc(-c3onc(C)c3C)ccc2C)c2cc(Cl)ccc2O1` (centres undefined) was tested, and the Potency was “inactive”. With `COc1cccc(-n2c(CN3CCN(Cc4ccccc4)CC3)nc3ccc([N+](=O)[O-])cc3c2=O)c1` the Potency was inconclusive: 39.8 µM [inhibitor, single point]. In the case of `CN1/C(=C\C=Nc2ccc3ccccc3c2)C(C)(C)c2ccccc21`, the Potency is reported as inconclusive: 7.08 µM [inhibitor, full curve]. For `Nc1ccc(NC(=O)Nc2ccc(N)cc2)cc1`, the Potency was inconclusive: 12.6 µM [inhibitor, partial curve]. In the case of `COc1ccc(C(=O)ON=C2CCN(c3ccc([N+](=O)[O-])cc3)CC2)cc1`, the Potency is reported as inconclusive: 5.01 µM [inhibitor, partial curve]. For `Cc1nc(C)c(/C(O)=C/c2nc3ccccc3oc2=O)s1`, the Potency was inconclusive: 12.6 µM [inhibitor, partial curve]. With `O=C1CC(c2ccccc2)=NN1c1nc(-c2ccccc2)cs1` the Potency was active: 10 µM. In the case of `COc1ccc(Nc2oc(COc3ccc(C)cc3)nc2C#N)cc1`, the Potency is reported as inconclusive: 25.1 µM [inhibitor, partial curve]. In the case of `COc1ccc2nc(/N=C/c3c(C)[nH]n(-c4ccc(C)cc4)c3=O)sc2c1`, the Potency is reported as active: 17.8 µM. For `COc1cccc(OCCSc2nc(N)cc(N)n2)c1`, the Potency was inconclusive: 12.6 µM [inhibitor, partial curve]. With `CCOC(=O)N1CCC2(CC1)OC(=O)C(C)=C2C(=O)NCc1cccc(F)c1` the Potency was “inactive”. `CCCCOC(=O)/C=C\C(=O)NC(N)=O` was tested, and the Potency was inconclusive: 14.1 µM [inhibitor, partial curve]. In the case of `Fc1ccc(-c2n[nH]c(=S)c3ccccc23)cc1`, the Potency is reported as “inactive”. For `C=CCC1Cc2c(cccc2[N+](=O)[O-])C(CC=C)N1` (centres undefined), the Potency was inconclusive: 15.8 µM [inhibitor, partial curve]. In the case of `Cc1ccc(-n2c(CCc3ccccc3)nnc2SCC(=O)NCc2ccccc2)cc1C`, the Potency is reported as inconclusive: 17.8 µM [inhibitor, partial curve]. For `O=C1c2c(O)cc(O)cc2O[C@H](c2ccc(O)c(O)c2)[C@H]1O`, the Potency was inconclusive: 15.8 µM [inhibitor, partial curve]. For `O=C1c2c(O)cc(O)cc2OC(c2ccc(O)c(O)c2)C1O` (centres undefined), the Potency was inconclusive: 15.8 µM [inhibitor, partial curve, poor fit]. For `CCOC(=O)OCC1OC(CCc2ccccc2)CCC1Oc1ccc(OC)cc1` (centres undefined), the activity, negative = inhibition was inactive: -7.69% [at 11.5 µM]. With `O=C(NNC(=O)C1CC2CCC1C2)c1sc2ccccc2c1Cl` (centres undefined) the Potency was “inactive”. With `COc1ccc(NC(=O)NCc2ccccc2F)cc1OC` the Potency was “inactive”. `Cc1cccc(-n2ncc3c(N4CCCC(C)C4)ncnc32)c1` (centres undefined) was tested, and the Potency was inconclusive: 2.82 µM [inhibitor, partial curve]. With `O=C(CNS(=O)(=O)c1ccc2ccccc2c1)OCc1csc(-c2ccccc2)n1` the Potency was inconclusive: 17.8 µM [inhibitor, partial curve]. For `CCN=c1sc(C(=O)NCCc2ccccc2)cc(=O)n1CC`, the Potency was inconclusive: 31.6 µM [inhibitor, single point]. `Cc1ccc(Cn2ccnc2SCC(=O)Nc2nc3ccccc3s2)cc1` was tested, and the Potency was inconclusive: 3.98 µM [inhibitor, single point]. With `Cc1ccc(S(=O)(=O)Nc2ccccc2C=Nc2cccc(C)c2C)cc1` the Potency was inconclusive: 28.2 µM [inhibitor, partial curve]. With `O=C(NCc1ccccc1)c1ccc(C2SCC(=O)N2Cc2ccccc2)cc1` (centres undefined) the Potency was “inactive”. With `Cc1cc2c(=O)n(Cc3ccco3)c(SCC(=O)c3ccc(Cl)s3)nc2s1` the Potency was inconclusive: 35.5 µM [inhibitor, single point]. In the case of `CC(C)OC(=O)[C@H]1O[C@H](CCCCOCc2ccccc2)[C@@H](C)[C@H]2O[C@H]21`, the Potency is reported as “inactive”. For `CCc1ccc(C2=NN(C(C)=O)C(c3ccco3)C2)cc1` (centres undefined), the Potency was inconclusive: 22.4 µM [inhibitor, single point]. With `Cc1ccccc1NC(=S)N/N=C/c1ccc(O)cc1O` the Potency was inconclusive: 15.8 µM [inhibitor, partial curve]. With `COc1ccc2c(c1)CC/C(=C/c1ccncc1)C2=O` the Potency was inconclusive: 5.62 µM [inhibitor, partial curve].
Further: nearly all actives have a fitted effect of over 55% in size.
On the % scale 0 is the no-effect control and ±100 the full control effect; potency means the concentration at half of the fitted maximal effect; tags describe the fitted curve by direction and shape.
